Data from PMC12754632, “ZapA uses a two‐pronged mechanism to facilitate Z ring formation in Escherichia coli” (mLife, 2025).
Results are given in words; binding and its absence hold for the method and conditions named. For some of these results: In cells and extracts the contact can be indirect. Some entries that bind do so weakly or less than the wild type. For some of these results: Tags and fused reporters may be left off the sequences shown.

T1: ZapA‐T18 (Escherichia coli) (UniProt P0ADS2)
T1 sequence: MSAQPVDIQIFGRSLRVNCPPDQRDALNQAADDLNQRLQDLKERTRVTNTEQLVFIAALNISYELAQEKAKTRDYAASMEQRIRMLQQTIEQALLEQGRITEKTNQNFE

T2: ZapA^C19A,T50C–GFP (Escherichia coli) (UniProt P0ADS2)
T2 sequence: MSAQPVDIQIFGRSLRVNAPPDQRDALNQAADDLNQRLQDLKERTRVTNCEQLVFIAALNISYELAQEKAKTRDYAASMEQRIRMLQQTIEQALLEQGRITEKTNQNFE

T3: H-SUMO-ZapA (Escherichia coli) (UniProt P0ADS2)
T3 sequence: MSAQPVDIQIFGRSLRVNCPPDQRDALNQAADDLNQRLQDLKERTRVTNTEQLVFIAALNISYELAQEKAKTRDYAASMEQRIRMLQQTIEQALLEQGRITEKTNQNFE

T4: H-SUMO-ZapA (Escherichia coli), P0ADS2
T4 chain: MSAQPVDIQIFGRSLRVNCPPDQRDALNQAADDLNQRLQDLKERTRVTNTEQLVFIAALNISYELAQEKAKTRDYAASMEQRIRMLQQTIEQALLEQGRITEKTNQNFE


How the values were obtained:
[1] = target: T1, ZapA‐T18 (Escherichia coli); assay: two-hybrid; bacterial two-hybrid: fusions to the T18 and T25 domains of adenine cyclase in strain BTH101, spotted on LB plates with X-gal and IPTG, 30°C, 12 h; blue indicates a positive interaction
[2] = target: T2, ZapA^C19A,T50C–GFP (Escherichia coli); assay: cross-linking; in vivo cysteine cross-linking with 400 μM BMOE, 4°C, 15 min, in PBSG with 5 mM EDTA; DMF as negative control; western blot with antiserum against FtsZ
[3] = target: T3, H-SUMO-ZapA (Escherichia coli); assay: pull-down; H-SUMO-ZapA (6 μM) and FtsZ (2 μM) in Pol buffer (50 mM HEPES-NaOH pH 6.8, 50 mM KCl, 10 mM MgCl2), GTP in the buffers throughout, held on Ni-NTA agarose, washed with 500 mM NaCl and 20 mM imidazole, eluted with 250 mM imidazole; fractions on SDS-PAGE; both purified
[4] = target: T4, H-SUMO-ZapA (Escherichia coli), P0ADS2; assay: as above; settings: remark: other sources report otherwise

| Molecule | binding [1] | also measured |
| --- | --- | --- |
| FtsZ^1–316, T25 fusion (from UniProt P0A9A6 1-316) (domain or fragment) | binds | – |
| FtsZ^316–370, two-hybrid fusion (from UniProt P0A9A6 316-370) (domain or fragment) | no binding | – |
| FtsZ^N73C (from UniProt P0A9A6 1-383) | – | binding [2]: binds |
| T25–FtsZ^1–316 with L178E (from UniProt P0A9A6 1-316) (domain or fragment) | no binding | – |
| full length FtsZ, two-hybrid fusion (from UniProt P0A9A6 1-383) | binds | – |
| wild-type FtsZ (from UniProt P0A9A6 1-383) | – | binding [3]: binds weakly |
| FtsZ^(D212N, F2A), P0A9A6 1-383 (protein) MAEPMELTNDAVIKVIGVGGGGGNAVEHMVRERIEGVEFFAVNTDAQALRKTAVGQTIQIGSGITKGLGAGANPEVGRNAADEDRDALRAALEGADMVFIAAGMGGGTGTGAAPVVAEVAKDLGILTVAVVTKPFNFEGKKRMAFAEQGITELSKHVDSLITIPNDKLLKVLGRGISLLDAFGAANDVLKGAVQGIAELITRPGLMNVDFANVRTVMSEMGYAMMGSGVASGEDRAEEAAEMAISSPLLEDIDLSGARGVLVNITAGFDLRLDEFETVGNTIRAFASDNATVVIGTSLDPDMNDELRVTVVATGIGMDKRPEITLVTNKQVQQPVMDRYQQHGMAPLTQEQKPVAKVVNDNAPQTAKEPDYLDIPAFLRKQAD | – | binding [4]: binds |

Continued, in another order:

| binding [1] | Molecule | also measured |
| --- | --- | --- |
| no binding | FtsZ^1‐316 with F2A, T25 fusion (from UniProt P0A9A6 1-316) (domain or fragment) | – |
| no binding | FtsZ^1–316 with the triple mutation (KER/NAE), T25 fusion (from UniProt P0A9A6 1-316) (domain or fragment) | – |
| no binding | FtsZ^370–383, two-hybrid fusion (from UniProt P0A9A6 370-383) (domain or fragment) | – |
